According to patent publication US20100267825A1, “TREATMENT OF SKIN DAMAGE” (Eukarion, Inc., priority 2009, published 2010):
Some entries share one result that the patent states for a list of compounds. At least one compound was matched to its structure with a doubt left.

Experiment: In vitro catalase activity (colorimetric peroxidase/ABTS-coupled assay)
Assay type: biochemical
Details: band of relative catalase rate the mimetic falls in; relative to C7 (EUK-8) set at 100%; each band printed for two bands of increase in oxidative damage beyond baseline
Procedure: The catalase activity of SOD/Catalase mimetics used in the process was determined as previously described by Doctrow et al., 2002, J. Med. Chem. 45, 4549-4558. Briefly, catalase activity was measured by incubating the sample compound with hydrogen peroxide and determining the amount of hydrogen peroxide remaining after a period of time using a colorimetric peroxidase-coupled assay method. 10 μM sample compound and 100 μM hydrogen peroxide in 40 mM sodium phosphate pH 7.4 were incubated together at ambient temperature in a multi-well plate. After the desired reaction period had elapsed, 20 μl of peroxidase/ABTS reagent was added (peroxidase/ABTS reagent contained […] of 50 mM Na phosphate, pH 7.4, 1 mg horseradish peroxidase (1310 U/mg) and 1.6 g ABTS). After five minutes, absorbance at 750 nm was determined.
The amount of hydrogen peroxide remaining was calculated based on a standard curve. To compare rates of catalase reaction, the amount of hydrogen peroxide consumed at 20 minutes was determined.
(rate obtained for SOD/Catalase mimetic)/(rate obtained for C7 (EUK-8))×100%

Compound	Relative Catalase Rate Range
CC(=NCCN=C(C)c1ccccc1[O-])c1ccccc1[O-].CC(=O)[O-].[Mn+3] [C85]	20-100%
COc1ccc(C=NCCN=Cc2ccc(OC)cc2[O-])c([O-])c1.[Cl-].[Mn+3] [C34]	20-100%
C1=Cc2nc1cc1ccc([n-]1)c(Cc1ccccc1)c1nc(cc3ccc([n-]3)c2Cc2ccccc2)C=C1.CC(=O)[O-].[Mn+3] [EUK-423, {[{(Porphine-5,15-diyl)bis[benzyl-diyl]}] (2-)-N^21, N^22, N^23, N^24} manganese(III) acetate]	20-100%
CC(=O)[O-].[Mn+3].[O-]c1ccccc1CNCCNCc1ccccc1[O-] [C83]	20-100%
CC(=O)[O-].[Mn+3].[O-]c1c(F)cccc1C=NCCN=Cc1cccc(F)c1[O-] [C36]	100-200%
CC(=O)[O-].COc1cc(Br)c([O-])c(C=Nc2ccccc2N=Cc2cc(OC)cc(Br)c2[O-])c1.[Mn+3] [C76]	400-500%
CC(=O)[O-].[Mn+3].[O-]c1ccccc1C=NCCN=Cc1ccccc1[O-] [C31]	20-100%
COc1cccc(C=NCCN=Cc2cccc(OC)c2[O-])c1[O-].[Cl-].[Mn+3] [C40 (EUK-134)]	100-200%
{[{(Porphine-5,15-diyl) bis[propyl-diyl]}] (2-)-N^21, N^22, N^23, N^24} manganese(III) chloride [EUK-453]	20-100%
[Cl-].[Mn+3].[O-]c1c(F)cccc1C=NCCN=Cc1cccc(F)c1[O-] [C37]	100-200%
CC(=O)[O-].COc1ccc(C=NCCN=Cc2ccc(OC)cc2[O-])c([O-])c1.[Mn+3] [C33]	20-100%
C1=Cc2nc1cc1ccc([n-]1)c(C1CC1)c1nc(cc3ccc([n-]3)c2C2CC2)C=C1.CC(=O)[O-].[Mn+3] [EUK-418, {[{(Porphine-5,15-diyl)bis[cyclopropyl-diyl]}] (2-)-N^21, N^22, N^23, N^24} manganese(III) acetate]	20-100%
C1=Cc2nc1cc1ccc([n-]1)c(C1CCOCC1)c1nc(cc3ccc([n-]3)c2C2CCOCC2)C=C1.[Cl-].[Mn+3] [EUK-451, {[{(Porphine-5,15-diyl)bis[4-Tetrahydropyrano-diyl]}](2-)-N^21, N^22, N^23, N^24} manganese(III) chloride]	100-200%
CC(=O)[O-].COc1cccc(C=NCCN=Cc2cccc(OC)c2[O-])c1[O-].[Mn+3] [C32]	100-200%
CC(=O)[O-].CCc1c2nc(c(CC)c3ccc([n-]3)c(CC)c3nc(c(CC)c4ccc1[n-]4)C=C3)C=C2.[Mn+3] [EUK-425, (5,10,15,20-Tetraethylporphyrinato) manganese (III) acetate]	20-100%
C1=Cc2nc1cc1ccc([n-]1)c(C1CCCCC1)c1nc(cc3ccc([n-]3)c2C2CCCCC2)C=C1.[Cl-].[Mn+3] [EUK-452, {[{(Porphine-5,15-diyl)bis[cyclohexyl-diyl]}] (2-)-N^21, N^22, N^23, N^24} manganese(III) chloride]	100-200%
[Cl-].[Mn+3].[O-]c1ccccc1CNCCNCc1ccccc1[O-] [C84]	20-100%
CC(=O)[O-].COc1cc([O-])c(C=NCCN=Cc2c([O-])cc(OC)cc2OC)c(OC)c1.[Mn+3] [C35]	20-100%
CC(=O)[O-].[Mn+3].[O-]c1c2cccc1OCCOCCOCCOc1cccc(c1[O-])C=Nc1ccccc1N=C2 [C82]	300-400%
COc1cccc(C=Nc2ccccc2N=Cc2cccc(OC)c2[O-])c1[O-].[Cl-].[Mn+3] [C81]	400-500%
